Results from the supplement of paper PMC8728848.
Some of the results follow.

What was measured:
Experiment in all cases: glycan array binding signal (z-score within array); higher = stronger binding
Conditions in all cases: glycan notation: IUPAC condensed, linker removed
Gal3S4S(b1-4)GlcNAc = target: Gal3S4S(b1-4)GlcNAc
Method in brief: (§1)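 Negative Z-scores can be read as non-binding. The Z-score is calculated within each array and then averaged across arrays of one protein sequence at different concentrations or buffers and across linkers. Arrays, 3228 in all, were curated from the Consortium for Functional Glycomics database and kept only where the protein sequence was available.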

Gal3S6S(b1-4)GlcNAc = target: Gal3S6S(b1-4)GlcNAc
Method in brief: as §1

Gal3S6S(b1-4)GlcNAc6S = target: Gal3S6S(b1-4)GlcNAc6S
Method in brief: as §1

Gal4S(b1-4)GlcNAc = target: Gal4S(b1-4)GlcNAc
Method in brief: as §1

Gal4S6S(b1-4)GlcNAc = target: Gal4S6S(b1-4)GlcNAc
Method in brief: as §1

Gal6P(b1-4)GlcNAc = target: Gal6P(b1-4)GlcNAc
Method in brief: as §1

Gal6S(b1-3)GlcNAc = target: Gal6S(b1-3)GlcNAc
Method in brief: as §1

Gal6S(b1-3)GlcNAc6S = target: Gal6S(b1-3)GlcNAc6S
Method in brief: as §1

Gal6S(b1-4)Glc = target: Gal6S(b1-4)Glc
Method in brief: as §1

Gal6S(b1-4)Glc6S = target: Gal6S(b1-4)Glc6S
Method in brief: as §1

Gal6S(b1-4)GlcNAc = target: Gal6S(b1-4)GlcNAc
Method in brief: as §1

Gal6S(b1-4)GlcNAc6S = target: Gal6S(b1-4)GlcNAc6S
Method in brief: as §1

GalNAc(a1-3)Gal = target: GalNAc(a1-3)Gal
Method in brief: as §1

GalNAc(a1-3)GalNAc = target: GalNAc(a1-3)GalNAc
Method in brief: as §1

[1] = target: GalNAc(a1-3)GalNAc(b1-3)Gal(a1-4)Gal(b1-4)Glc
Method in brief: as §1

[2] = target: GalNAc(a1-3)GalNAc(b1-3)Gal(a1-4)Gal(b1-4)GlcNAc
Method in brief: as §1

GalNAc(b1-3)Gal = target: GalNAc(b1-3)Gal
Method in brief: as §1

[3] = target: GalNAc(b1-3)Gal(a1-4)Gal(b1-4)GlcNAc
Method in brief: as §1

[4] = target: GalNAc(b1-3)Gal(a1-4)Gal(b1-4)GlcNAc(b1-3)Gal(b1-4)Glc
Method in brief: as §1

[5] = target: GalNAc(b1-3)Gal(a1-6)Gal(b1-4)Glc
Method in brief: as §1

GalNAc(b1-3)GalNAc = target: GalNAc(b1-3)GalNAc
Method in brief: as §1

GalNAc(b1-4)Gal(b1-4)Glc = target: GalNAc(b1-4)Gal(b1-4)Glc
Method in brief: as §1

GalNAc(b1-4)GlcNAc = target: GalNAc(b1-4)GlcNAc
Method in brief: as §1

[6] = target: GalNAc(b1-4)GlcNAc(b1-2)Man(a1-3)[GalNAc(b1-4)GlcNAc(b1-2)Man(a1-6)]Man(b1-4)GlcNAc(b1-4)GlcNAc
Method in brief: as §1

GalNAc(b1-4)GlcNAc6S = target: GalNAc(b1-4)GlcNAc6S
Method in brief: as §1

GalNAc(b1-6)GalNAc = target: GalNAc(b1-6)GalNAc
Method in brief: as §1

GalNAc3S(b1-4)GlcNAc = target: GalNAc3S(b1-4)GlcNAc
Method in brief: as §1

GalNAc3S(b1-4)GlcNAc3S = target: GalNAc3S(b1-4)GlcNAc3S
Method in brief: as §1

GalNAc4S6S(b1-4)GlcNAc = target: GalNAc4S6S(b1-4)GlcNAc
Method in brief: as §1

GalNAc6S(b1-4)GlcNAc = target: GalNAc6S(b1-4)GlcNAc
Method in brief: as §1

Glc(a1-4)Glc = target: Glc(a1-4)Glc
Method in brief: as §1

[7] = target: Glc(a1-4)Glc(a1-4)Glc(a1-4)Glc
Method in brief: as §1

Glc(a1-6)Glc(a1-6)Glc = target: Glc(a1-6)Glc(a1-6)Glc
Method in brief: as §1

[8] = target: Glc(a1-6)Glc(a1-6)Glc(a1-6)Glc
Method in brief: as §1

Glc(b1-4)Glc = target: Glc(b1-4)Glc
Method in brief: as §1

Glc(b1-6)Glc = target: Glc(b1-6)Glc
Method in brief: as §1

GlcA(b1-3)Gal = target: GlcA(b1-3)Gal
Method in brief: as §1

GlcA(b1-3)GlcNAc = target: GlcA(b1-3)GlcNAc
Method in brief: as §1

GlcA(b1-6)Gal = target: GlcA(b1-6)Gal
Method in brief: as §1

[9] = target: GlcNAc(a1-3)Gal(b1-4)GlcNAc
Method in brief: as §1

[10] = target: GlcNAc(a1-4)Gal(b1-3)GlcNAc
Method in brief: as §1

[11] = target: GlcNAc(a1-4)Gal(b1-4)GalNAc
Method in brief: as §1

[12] = target: GlcNAc(a1-4)Gal(b1-4)GlcNAc
Method in brief: as §1

[13] = target: GlcNAc(a1-4)Gal(b1-4)GlcNAc(b1-3)Gal(b1-4)Glc
Method in brief: as §1

[14] = target: GlcNAc(a1-4)Gal(b1-4)GlcNAc(b1-3)Gal(b1-4)GlcNAc
Method in brief: as §1

B1: CCL1 (Coprinopsis cinerea) (protein)
chain: MDTQAKPPAGRYVIYNRVLSPNGEKLALTYPGYQREALTLTPLHHSANQIWILNNWDATTSSLTPETARNTQVGWGSGNVPIVLPPGNYVWTLASSAGGYIIQDGGKTVYWNAGEAVANTKVSIGGDNGLQARWIFERV
glycan array binding signal (z-score) (Gal3S4S(b1-4)GlcNAc): 0.009
glycan array binding signal (z-score) (Gal3S6S(b1-4)GlcNAc): -0.165
glycan array binding signal (z-score) (Gal3S6S(b1-4)GlcNAc6S): -0.145
glycan array binding signal (z-score) (Gal4S(b1-4)GlcNAc): -0.148
glycan array binding signal (z-score) (Gal4S6S(b1-4)GlcNAc): -0.168
glycan array binding signal (z-score) (Gal6P(b1-4)GlcNAc): -0.134
glycan array binding signal (z-score) (Gal6S(b1-3)GlcNAc): -0.152
glycan array binding signal (z-score) (Gal6S(b1-3)GlcNAc6S): -0.017
glycan array binding signal (z-score) (Gal6S(b1-4)Glc): -0.164
glycan array binding signal (z-score) (Gal6S(b1-4)Glc6S): -0.145
glycan array binding signal (z-score) (Gal6S(b1-4)GlcNAc): -0.157
glycan array binding signal (z-score) (Gal6S(b1-4)GlcNAc6S): -0.037
glycan array binding signal (z-score) (GalNAc(a1-3)Gal): -0.164
glycan array binding signal (z-score) (GalNAc(a1-3)GalNAc): -0.159
glycan array binding signal (z-score) [1]: -0.154
glycan array binding signal (z-score) [2]: -0.166
glycan array binding signal (z-score) (GalNAc(b1-3)Gal): -0.169
glycan array binding signal (z-score) [3]: -0.118
glycan array binding signal (z-score) [4]: -0.158
glycan array binding signal (z-score) [5]: -0.111
glycan array binding signal (z-score) (GalNAc(b1-3)GalNAc): -0.168
glycan array binding signal (z-score) (GalNAc(b1-4)Gal(b1-4)Glc): -0.124
glycan array binding signal (z-score) (GalNAc(b1-4)GlcNAc): -0.159
glycan array binding signal (z-score) [6]: -0.144
glycan array binding signal (z-score) (GalNAc(b1-4)GlcNAc6S): -0.137
glycan array binding signal (z-score) (GalNAc(b1-6)GalNAc): -0.163
glycan array binding signal (z-score) (GalNAc3S(b1-4)GlcNAc): -0.125
glycan array binding signal (z-score) (GalNAc3S(b1-4)GlcNAc3S): -0.069
glycan array binding signal (z-score) (GalNAc4S6S(b1-4)GlcNAc): -0.107
glycan array binding signal (z-score) (GalNAc6S(b1-4)GlcNAc): -0.156
glycan array binding signal (z-score) (Glc(a1-4)Glc): -0.117
glycan array binding signal (z-score) [7]: -0.127
glycan array binding signal (z-score) (Glc(a1-6)Glc(a1-6)Glc): -0.13
glycan array binding signal (z-score) [8]: -0.137
glycan array binding signal (z-score) (Glc(b1-4)Glc): -0.115
glycan array binding signal (z-score) (Glc(b1-6)Glc): -0.128
glycan array binding signal (z-score) (GlcA(b1-3)Gal): -0.096
glycan array binding signal (z-score) (GlcA(b1-3)GlcNAc): -0.145
glycan array binding signal (z-score) (GlcA(b1-6)Gal): -0.129
glycan array binding signal (z-score) [9]: -0.139
glycan array binding signal (z-score) [10]: -0.154
glycan array binding signal (z-score) [11]: 0.005
glycan array binding signal (z-score) [12]: -0.145
glycan array binding signal (z-score) [13]: -0.127
glycan array binding signal (z-score) [14]: -0.126
